# Sequences with one replicate were seen in a single cluster, so their values are uncertain.
# Test system: ATP
# Test: switch fluorescence ratio, 500 uM ATP over buffer (Cy3 cluster intensity, sum of 5 cycles each) (fold (ratio)); higher = stronger signal-on switching upon ATP binding; sequences stand for … in TCGTCGGCAGCGTCAGATGTGTATAAGAGACAGTTTTTTTTTTTTTTTTTTTTTTTTT…TC
# Settings: aptamer strand: ATP DNA aptamer (quencher-CACCTGGGGGAGTATTGCGGAGGAAGG + anchor), 100 nM annealed; ATP concentration: 500 uM; one replicate
# Procedure, shortened: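 After annealing to 100 nM quencher-labelled ATP aptamer, Cy3-labelled switching-strand clusters on a modified Illumina MiSeq flow-cell were imaged in selection buffer. A second image followed after 15 min with 500 uM ATP at 22 °C, and five such buffer/ATP cycles were done, each separated by NaOH stripping and re-annealing. The fluorescence ratio, averaged per switch-domain sequence, is summed target-cycle over summed buffer-cycle Cy3 intensity per cluster, with clusters outside 100-1000 RFU excluded.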
# 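Further: ATP exposure 15 min at 22 °C before imaging.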
row,Sequence,switch fluorescence ratio
1,AAGTTTGTAT,0.989
2,CCACTATTTG,0.96
3,GACCGTTACA,1.33
4,ACATTGTTAC,1.1
5,TTATATATAT,0.982
6,TCTCGCTCCT,1.11
7,AGTTAGTTTC,0.95
8,CTCGGGTGCA,1.06
9,CCGGCTGCCT,1.09
10,TTACGTGATT,1
11,GAAGGAAGGA,1
12,ATCGGAACAT,1
13,GAAACATACT,1.26
14,TTTGGAAAAG,1.03
15,ACCACGGGTC,1.05
16,TCGTCGGCGG,1.02
17,GTTCTTCGCC,1.04
18,TGGTATTTTC,1
19,GAAGTCTTGC,0.998
20,GGCCACCGAA,1
21,ATCACAAAAG,0.965
22,GTTCTTAAAG,1
23,TACTGTCTAG,0.968

row,Sequence,switch fluorescence ratio
1,ATGCTTGGG,0.976
2,CCATCCCTCG,1.04
3,GGCCACATGA,1.05
4,AGAGTGACTC,1
5,CCTGATTAGT,1.02
6,GCAGCTGCGC,0.992
7,CCGACTGGTG,1.8
8,CATGAATGG,1.03
9,TGTACTAAAG,1.07
10,TGACTCGCTC,1.09
11,GGTTTTTCCC,1
12,GTCACGGTAT,1.12
13,TCCGCTCCAT,1.56
14,CCAGGCGGGT,0.98
15,ATCGCCTAGA,1
16,CCAGGTAGTC,1.48
17,AAGGGGATAC,1.14
18,TGGGTACCAA,1.03
19,TCACAAGCTA,1.11
20,CGAAATATGG,1.04
21,GGTGCACGGA,1.01
22,TGGGAGCGGA,1.04
23,TATTCCACTT,1

row,Sequence,switch fluorescence ratio
1,AGACATACGG,1.06
2,ATGGGAGTCT,1
3,GGCCGCTGAA,0.999
4,GCAGTGTGA,1.04
5,ATCCGTAGAG,1.16
6,CTCCTTTTCC,1.13
7,CCACGATTGA,1.03
8,TTACGTTGGA,1.02
9,CGGAAGAATC,0.992
10,ATAGAGGG,1.01
11,CGGAAACCCT,1.24
12,ATGTCACCGG,0.978
13,AACTAAGATT,1.02
14,AGTAACTCGC,0.975
15,GCAGTACAAT,1.09
16,GCGCGGGACT,1.01
17,ATCCGGGCG,1.03
18,TATCAAGGG,0.986
19,AGGCTAGGCA,1.01
20,ACCGGGCCGG,0.996
21,CGTACGATTA,1.05
22,CAAATTAGTA,0.976
23,TCGTATTTCT,0.993

row,Sequence,switch fluorescence ratio
1,GCCAGATAAG,1
2,AGCCGCTTAG,1.23
3,GCTTGGATTC,0.995
4,CCCCTCGCTT,1.63
5,TGGCCAGAGG,0.998
6,GCAGGTACT,1.07
7,CACACTAGGA,1.03
8,AGGCCCCGTT,0.986
9,AAGGGTTTCA,1
10,CTGAGTTAGG,0.973
11,TTCCATTGAG,1
12,GGAGTCCACC,0.975
13,ATCCTAAACC,1.04
14,CATGAGTTCA,0.97
15,GCCCATGATG,0.997
16,CAGTGCAGGA,0.989
17,TACTATATTA,1.06
18,GAAACGCCGT,0.996
19,AATACTACCC,2.54
20,GCGGTTCGGA,1.02
21,TGACGTGTGG,0.967
22,CGAACGGTTC,1.03
23,TTGGTTCAAC,0.967

row,Sequence,switch fluorescence ratio
1,TAAGTGGGCT,1.04
2,CGTATCCCCA,1.02
3,TTAATCCAAA,1.01
4,AGGTAGCAGA,1
5,CTATAAAGTA,0.991
6,CCAGCGTTCT,1.05
7,AGAGGGGATT,0.988
8,TAGTTAGTGC,0.939
9,GGTGGGGAC,0.992
10,AAGCACTAAG,1.22
11,TACCCGTCAA,3.32
12,CTGCACGGTG,1.09
13,ATGCTATAT,1.01
14,AGCCGTGAGG,0.993
15,GAGGATCTTA,0.974
16,CGGATCTAAG,0.988
17,ACTATTTGTG,1.01
18,TTCGCATTGT,0.996
19,TTGCTTGTAG,0.965
20,CTGGTAGACC,1
21,TTCCATCAAG,0.995
22,CTTATCAACG,1.02
23,TGGTTGCCCG,0.941

row,Sequence,switch fluorescence ratio
1,AAAACTGTGT,1.03
2,GGCCGCTGAC,3.03
3,TGGACTGTA,1.3
4,ATGGACCGTA,0.974
5,GTGGTTTCTA,1.01
6,CTTTTCGGGC,1
7,GAAGGCTTTG,0.98
8,CGTGATGTAA,1.01
9,AGCCCTACAT,1.09
10,CGACAGGGCG,0.917
11,AACTAGTGTA,0.966
12,CTTGTATGAT,0.984
13,AGTCTCCCCC,1.79
14,GCAAATCGAC,1.79
15,CCCCTGTTTC,1.1
16,ATAATGCTTG,0.997
17,CGAGGTACGC,1
18,GTAAGAGTAA,0.967
19,GCACGATGCG,0.991
20,GTTACTTATA,1.04
21,CCGATAGTTC,1.49
22,CGGCCACGAC,1.04
23,AGGAAATCGG,0.998

row,Sequence,switch fluorescence ratio
1,TACGTCAGGG,1.13
2,CTCGATGGA,0.95
3,CTACTAAGAA,1.01
4,TTAGAGACTA,1.02
5,AACGATTCAT,1.05
6,GATGGGGAAG,0.97
7,CGCTGTTATT,0.992
8,GAAAGCGTGG,1.04
9,GAAGAGTAAG,0.996
10,TATGGAGCGG,1.02
11,GATTAAAGAG,1.03
12,CTGTCTGCAC,1.79
13,GCTTTGGAGT,1.05
14,GAAAAAACAA,1.05
15,GAGAGACGGA,1.1
16,AAGGGATAAC,1.02
17,GAAGATCTAA,0.99
18,CCTTTAATAA,1.15
19,GCAATTTCTC,2.23
